In general, inhibition refers to the drop in the measured response relative to a control, in per cent.

For the assay, the target named is Genome polyprotein (dengue virus type 2) (UniProt P29990).
Setting [1] is: Thailand/16681/1984, Concentration 25.0 uM, Number of replicates 1.0.

Hit rate of the full screen: of about 2,000 compounds, about 110 (5.5%) showed an effect of 50% or more. The list shows a part of the results.

As for `NCc1ccc(C[C@H](NC(=O)c2ccccc2)C(=O)N2CCCCC2)cc1`, the inhibition (Thailand/16681/1984, Concentration 49.5 uM, Number of replicates 2.0, Standard deviation 0.17896696164662676 %) came out at 0.311%; the inhibition (Thailand/16681/1984, Concentration 99.01 uM, Number of replicates 2.0, Standard deviation 0.22162768560798987 %) turned out to be 1.81%; the inhibition (Thailand/16681/1984, Concentration 198.0 uM, Number of replicates 2.0, Standard deviation 1.4421407385459897 %) is 4.23%.

With `O=Cc1ccc(N2CCC(C(=O)NCc3ccc(Br)s3)CC2)cc1`, the inhibition under setting [1] stood at 12.4%.

As to `Cc1cc(CO)c2cccc(CC(=O)Nc3cc(C)on3)c2n1`, the inhibition (Thailand/16681/1984, Concentration 49.95 uM, Number of replicates 2.0, Standard deviation 0.056769444720657654 %) is 98.7% and the inhibition (Thailand/16681/1984, Concentration 99.9 uM, Number of replicates 2.0, Standard deviation 0.01177144620169866 %) turned out to be 99.4%.

For `O=Cc1ccc(N2CCC(C(=O)N3CCN(c4ccccc4[N+](=O)[O-])CC3)CC2)cc1`, under setting [1], the inhibition came out at 13.5%.

`O=Cc1ccc(N2CCC(C(=O)Nc3cccc(C(F)(F)F)n3)CC2)cc1`: the inhibition under setting [1] came to 13.5%.

With `O=Cc1ccc(N2CCC(C(=O)NCCc3csc(-c4ccncc4)n3)CC2)cc1`, under setting [1], the inhibition is 14.3%.

For `N#Cc1ccc(C[C@H](NC(=O)c2ccccc2)C(=O)NCCCCNC(=N)N)cc1`, the inhibition runs as follows: (Thailand/16681/1984, Concentration 49.5 uM, Number of replicates 2.0, Standard deviation 0.6326801671633419 %) -5.12%; (Thailand/16681/1984, Concentration 99.01 uM, Number of replicates 2.0, Standard deviation 1.2914777248245206 %) -4.14%; (Thailand/16681/1984, Concentration 198.0 uM, Number of replicates 2.0, Standard deviation 0.45252363179091937 %) -1.98%.

As to `O=Cc1ccc(N2CCC(C(=O)N3CCC(Cc4ccc(Br)cc4)CC3)CC2)cc1`, the inhibition under setting [1] was -3.91%.

Turning to `O=S(=O)(Nc1ccc(Cl)cc1)c1ccc(Oc2ccccc2Cl)cc1`, the inhibition by setting is: (Thailand/16681/1984, Concentration 49.5 uM, Number of replicates 2.0, Standard deviation 0.04775136783847868 %) 12.2%; (Thailand/16681/1984, Concentration 99.01 uM, Number of replicates 2.0, Standard deviation 0.32853232391890236 %) 22.7%; (Thailand/16681/1984, Concentration 198.0 uM, Number of replicates 2.0, Standard deviation 1.060565762839157 %) 44.5%.

Turning to `Cc1cnccc1NC(=O)c1cccc(-n2cnnn2)c1`, the inhibition is, setting by setting: (Thailand/16681/1984, Concentration 49.5 uM, Number of replicates 2.0, Standard deviation 0.2503352923405826 %) -0.163%; (Thailand/16681/1984, Concentration 99.01 uM, Number of replicates 2.0, Standard deviation 0.8335238140461166 %) 0.5%; (Thailand/16681/1984, Concentration 198.0 uM, Number of replicates 2.0, Standard deviation 0.8631931670807014 %) 0.333%.

With `Cc1cnccc1NC(=O)c1c(S(C)(=O)=O)cnn1C`, the inhibition is, setting by setting: (Thailand/16681/1984, Concentration 49.5 uM, Number of replicates 2.0, Standard deviation 2.112040450454514 %) -2.87%; (Thailand/16681/1984, Concentration 99.01 uM, Number of replicates 2.0, Standard deviation 0.7412991706842835 %) -3.65%; (Thailand/16681/1984, Concentration 198.0 uM, Number of replicates 2.0, Standard deviation 0.3762916153649011 %) -2.33%.

For the compound `CC(=O)N[C@@H](CCCCN)C(=O)Nc1ccccc1Cc1cccc2c(CO)cc(C)nc12`, the inhibition reads like this: (Thailand/16681/1984, Concentration 49.95 uM, Number of replicates 2.0, Standard deviation 0.842601818478522 %) -5.54%; (Thailand/16681/1984, Concentration 99.9 uM, Number of replicates 2.0, Standard deviation 0.16339684106206548 %) 1.8%.

As for `Cc1cc(CO)c2cccc(Cc3cccc(C(=O)N4CCCNCC4)c3)c2n1`, the inhibition is -5.55% (Thailand/16681/1984, Concentration 49.95 uM, Number of replicates 2.0, Standard deviation 0.42616060945996115 %) and 6.88% (Thailand/16681/1984, Concentration 99.9 uM, Number of replicates 2.0, Standard deviation 0.4513131743016865 %).

With `Cc1cnccc1NC(=O)c1nn(C)c2c1CCCC2`, the inhibition (Thailand/16681/1984, Concentration 49.5 uM, Number of replicates 2.0, Standard deviation 2.6774115947837758 %) stood at 5.71%; the inhibition (Thailand/16681/1984, Concentration 99.01 uM, Number of replicates 2.0, Standard deviation 2.8074062997576847 %) stood at 3.98%; the inhibition (Thailand/16681/1984, Concentration 198.0 uM, Number of replicates 2.0, Standard deviation 1.1102521767864677 %) came out at 3.95%.

As to `CC1(C)C[C@]1(CNC(=O)C1CCN(c2ccc(C=O)cc2)CC1)c1ccccc1`, under setting [1], the inhibition was 12.2%.

For the compound `CNC(=O)c1cccc(C(=O)Nc2ccncc2C)n1`, the inhibition was -1.53% (Thailand/16681/1984, Concentration 49.5 uM, Number of replicates 2.0, Standard deviation 0.4660664257418339 %); -0.505% (Thailand/16681/1984, Concentration 99.01 uM, Number of replicates 2.0, Standard deviation 1.0947141510270475 %); 0.74% (Thailand/16681/1984, Concentration 198.0 uM, Number of replicates 2.0, Standard deviation 0.10892945720707287 %).

Regarding `CCn1ccnc(N2C[C@@H](O)[C@H](c3c[nH]c4ccccc34)C2)c1=O`, the inhibition reads like this: (Thailand/16681/1984, Concentration 49.5 uM, Number of replicates 2.0, Standard deviation 0.09598084952646493 %) 9.07%; (Thailand/16681/1984, Concentration 99.01 uM, Number of replicates 2.0, Standard deviation 0.03676958499048013 %) 18.8%; (Thailand/16681/1984, Concentration 198.0 uM, Number of replicates 2.0, Standard deviation 0.07114927508299852 %) 33.4%.

Turning to `CN(CC(N)=O)Cc1cc(=O)c2cccc(Cl)c2[nH]1`, the inhibition reads like this: (Thailand/16681/1984, Concentration 49.95 uM, Number of replicates 2.0, Standard deviation 6.015777148585942 %) -8.14%; (Thailand/16681/1984, Concentration 99.9 uM, Number of replicates 2.0, Standard deviation 6.996333020085958 %) -8.34%.

Take `C[C@@H](CS(C)(=O)=O)NC(=O)c1cc(Cl)ccc1NS(=O)(=O)c1ccc(Oc2ccccc2Cl)cc1`: the inhibition is, setting by setting: (Thailand/16681/1984, Concentration 49.5 uM, Number of replicates 2.0, Standard deviation 0.5989303195749703 %) 51.1%; (Thailand/16681/1984, Concentration 99.01 uM, Number of replicates 2.0, Standard deviation 0.4213875631597994 %) 57%; (Thailand/16681/1984, Concentration 198.0 uM, Number of replicates 2.0, Standard deviation 0.24651523106627876 %) 43%.

As to `Cc1cc(CO)c2cccc(Cc3cccc(NC(=O)[C@@H](N)CC(N)=O)c3)c2n1`, the inhibition (Thailand/16681/1984, Concentration 49.95 uM, Number of replicates 2.0, Standard deviation 1.6450461196958641 %) was found to be 12.4% and the inhibition (Thailand/16681/1984, Concentration 99.9 uM, Number of replicates 2.0, Standard deviation 0.8834505440552805 %) is 30%.

As for `NCc1cccc(CNC(=O)[C@@H](NC(=O)OCc2ccccc2)c2ccc(OCc3ccccc3)cc2)c1`, the inhibition (Thailand/16681/1984, Concentration 49.5 uM, Number of replicates 2.0, Standard deviation 0.05305782465339428 %) was determined as 100%; the inhibition (Thailand/16681/1984, Concentration 99.01 uM, Number of replicates 2.0, Standard deviation 0.03132758391075349 %) turned out to be 99.6%; the inhibition (Thailand/16681/1984, Concentration 198.0 uM, Number of replicates 2.0, Standard deviation 0.04155072348555595 %) was 99.5%.

Values taken from ChEMBL document CHEMBL5606460, “ASAP - DENV-2 NS2B-NS3 protease fluorescence single point” (2024).
